# According to the supplement of paper PMC8728848:
# The list shows a part of the results.
# Assays:
# Experiment in all cases: glycan array binding signal (z-score within array); higher = stronger binding
# Conditions in all cases: glycan notation: IUPAC condensed, linker removed
# [1] = molecular target: Neu5Ac(a2-6)Gal(b1-4)GlcNAc(b1-2)Man(a1-3)[Neu5Ac(a2-3)Gal(b1-4)GlcNAc(b1-2)Man(a1-6)]Man(b1-4)GlcNAc(b1-4)GlcNAc
# In short: (§1)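 Negative Z-scores can be read as non-binding. The Z-score is calculated within each array and then averaged across arrays of one protein sequence at different concentrations or buffers and across linkers. Arrays, 3228 in all, were curated from the Consortium for Functional Glycomics database and kept only where the protein sequence was available.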
# [2] = molecular target: Neu5Ac(a2-6)Gal(b1-4)GlcNAc(b1-2)Man(a1-3)[Neu5Ac(a2-6)Gal(b1-4)GlcNAc(b1-2)Man(a1-6)]Man(b1-4)GlcNAc(b1-4)GlcNAc
# In short: as §1
# [3] = molecular target: Neu5Ac(a2-6)Gal(b1-4)GlcNAc(b1-2)Man(a1-3)[Neu5Ac(a2-6)Gal(b1-4)GlcNAc(b1-2)Man(a1-6)]Man(b1-4)GlcNAc(b1-4)[Fuc(a1-6)]GlcNAc
# In short: as §1
# [4] = molecular target: Neu5Ac(a2-6)Gal(b1-4)GlcNAc(b1-2)Man(a1-6)Man(b1-4)GlcNAc(b1-4)GlcNAc
# In short: as §1
# [5] = molecular target: Neu5Ac(a2-6)Gal(b1-4)GlcNAc(b1-2)Man(a1-6)[Gal(b1-4)GlcNAc(b1-2)Man(a1-3)]Man(b1-4)GlcNAc(b1-4)GlcNAc
# In short: as §1
# [6] = molecular target: Neu5Ac(a2-6)Gal(b1-4)GlcNAc(b1-2)Man(a1-6)[GlcNAc(b1-2)Man(a1-3)]Man(b1-4)GlcNAc(b1-4)GlcNAc
# In short: as §1
# [7] = molecular target: Neu5Ac(a2-6)Gal(b1-4)GlcNAc(b1-2)Man(a1-6)[Man(a1-3)]Man(b1-4)GlcNAc(b1-4)GlcNAc
# In short: as §1
# [8] = molecular target: Neu5Ac(a2-6)Gal(b1-4)GlcNAc(b1-2)[Neu5Ac(a2-6)Gal(b1-4)GlcNAc(b1-4)]Man(a1-3)[GlcNAc(b1-4)][Neu5Ac(a2-6)Gal(b1-4)GlcNAc(b1-2)[Neu5Ac(a2-6)Gal(b1-4)GlcNAc(b1-6)]Man(a1-6)]Man(b1-4)GlcNAc(b1-4)GlcNAc
# In short: as §1
# [9] = molecular target: Neu5Ac(a2-6)Gal(b1-4)GlcNAc(b1-2)[Neu5Ac(a2-6)Gal(b1-4)GlcNAc(b1-4)]Man(a1-3)[GlcNAc(b1-4)][Neu5Ac(a2-6)Gal(b1-4)GlcNAc(b1-4)Man(a1-6)]Man(b1-4)GlcNAc(b1-4)GlcNAc
# In short: as §1
# [10] = molecular target: Neu5Ac(a2-6)Gal(b1-4)GlcNAc(b1-2)[Neu5Ac(a2-6)Gal(b1-4)GlcNAc(b1-6)]Man(a1-6)[Neu5Ac(a2-6)Gal(b1-4)GlcNAc(b1-2)Man(a1-3)][GlcNAc(b1-4)]Man(b1-4)GlcNAc(b1-4)GlcNAc
# In short: as §1
# [11] = molecular target: Neu5Ac(a2-6)Gal(b1-4)GlcNAc(b1-3)Gal(b1-3)GlcNAc
# In short: as §1
# [12] = molecular target: Neu5Ac(a2-6)Gal(b1-4)GlcNAc(b1-3)Gal(b1-4)GlcNAc
# In short: as §1
# [13] = molecular target: Neu5Ac(a2-6)Gal(b1-4)GlcNAc(b1-3)Gal(b1-4)GlcNAc(b1-2)Man(a1-3)[Neu5Ac(a2-6)Gal(b1-4)GlcNAc(b1-3)Gal(b1-4)GlcNAc(b1-2)Man(a1-6)]GalNAc
# In short: as §1
# [14] = molecular target: Neu5Ac(a2-6)Gal(b1-4)GlcNAc(b1-3)Gal(b1-4)GlcNAc(b1-3)Gal(b1-4)GlcNAc
# In short: as §1
# [15] = molecular target: Neu5Ac(a2-6)Gal(b1-4)GlcNAc(b1-3)Gal(b1-4)GlcNAc(b1-3)Gal(b1-4)GlcNAc(b1-2)Man(a1-3)[Neu5Ac(a2-6)Gal(b1-4)GlcNAc(b1-3)Gal(b1-4)GlcNAc(b1-3)Gal(b1-4)GlcNAc(b1-2)Man(a1-6)]GalNAc
# In short: as §1
# [16] = molecular target: Neu5Ac(a2-6)Gal(b1-4)GlcNAc(b1-3)Gal(b1-4)GlcNAc(b1-3)GalNAc
# In short: as §1
# [17] = molecular target: Neu5Ac(a2-6)Gal(b1-4)GlcNAc(b1-3)Gal(b1-4)GlcNAc(b1-3)[Neu5Ac(a2-6)Gal(b1-4)GlcNAc(b1-3)Gal(b1-4)GlcNAc(b1-6)]GalNAc
# In short: as §1
# [18] = molecular target: Neu5Ac(a2-6)Gal(b1-4)GlcNAc(b1-3)Gal(b1-4)GlcNAc(b1-6)[Gal(b1-3)]GalNAc
# In short: as §1
# [19] = molecular target: Neu5Ac(a2-6)Gal(b1-4)GlcNAc(b1-3)Gal(b1-4)[Fuc(a1-3)]GlcNAc(b1-3)Gal(b1-4)[Fuc(a1-3)]GlcNAc
# In short: as §1
# [20] = molecular target: Neu5Ac(a2-6)Gal(b1-4)GlcNAc(b1-3)GalNAc
# In short: as §1
# [21] = molecular target: Neu5Ac(a2-6)Gal(b1-4)GlcNAc(b1-3)[Neu5Ac(a2-6)Gal(b1-4)GlcNAc(b1-6)]GalNAc
# In short: as §1
# [22] = molecular target: Neu5Ac(a2-6)Gal(b1-4)GlcNAc(b1-6)GalNAc
# In short: as §1
# [23] = molecular target: Neu5Ac(a2-6)Gal(b1-4)GlcNAc(b1-6)[Gal(b1-3)GlcNAc(b1-3)]Gal(b1-4)Glc
# In short: as §1
# [24] = molecular target: Neu5Ac(a2-6)Gal(b1-4)GlcNAc(b1-6)[Gal(b1-3)]GalNAc
# In short: as §1
# [25] = molecular target: Neu5Ac(a2-6)Gal(b1-4)GlcNAc6S
# In short: as §1
# [26] = molecular target: Neu5Ac(a2-6)GalNAc
# In short: as §1
# [27] = molecular target: Neu5Ac(a2-6)GalNAc(b1-4)GlcNAc
# In short: as §1
# [28] = molecular target: Neu5Ac(a2-6)GalNAc(b1-4)GlcNAc6S
# In short: as §1
# [29] = molecular target: Neu5Ac(a2-6)GlcNAc(b1-4)GlcNAc
# In short: as §1
# [30] = molecular target: Neu5Ac(a2-6)GlcNAc(b1-4)GlcNAc(b1-4)GlcNAc
# In short: as §1
binder,measurement,setting,value
CaSRK1 (Capsicum annuum) (protein) MALCKIFPFAFILLSCSCYLISGQRFDYPTANLSTTWINSVSAPHSIDYTDGSRIRAILLRGTFGPRYACGFYCNGNCESYLFAIFIVQTNSASQITSPAIGFPQVVWSANRNNPVKINSTLQLTAEGDLVLRDADGTLAWSTNTAGKSVAGLSLTDEGNLALFDSKNATVWQSFDHPTDALVPGQKLVPGMKLTASVSRTNWTAGGLFALSAIDNGLVAFVESNPPQKYFEASVGGSNTSGGSNYVKYLNGSLTLFTHSADTTELILISITPASSAQYMKLESNGHLKVYEWTSRGWREVDDLLTGFRGECNYPTVCGRYGICTMGQCSCPTSSSSRTYFRPIDVRRPSLGCSEVTKLTCQNTKKHSPLEVEDVDYFAFKAGISDTDLNTCKRACLEKCSCKAAFFRSGLNSSRTRGDCYLPTEIFSIMNNEKDRTRYDSVAFIKVQV,glycan array binding signal (z-score),[1],-0.135
same,glycan array binding signal (z-score),[2],0.437
same,glycan array binding signal (z-score),[3],-0.491
same,glycan array binding signal (z-score),[4],-0.596
same,glycan array binding signal (z-score),[5],-0.59
same,glycan array binding signal (z-score),[6],-0.31
same,glycan array binding signal (z-score),[7],-0.589
same,glycan array binding signal (z-score),[8],-0.443
same,glycan array binding signal (z-score),[9],-0.513
same,glycan array binding signal (z-score),[10],-0.576
same,glycan array binding signal (z-score),[11],-0.15
same,glycan array binding signal (z-score),[12],-0.402
same,glycan array binding signal (z-score),[13],-0.326
same,glycan array binding signal (z-score),[14],-0.316
same,glycan array binding signal (z-score),[15],2.58
same,glycan array binding signal (z-score),[16],0.344
same,glycan array binding signal (z-score),[17],0.636
same,glycan array binding signal (z-score),[18],-0.554
same,glycan array binding signal (z-score),[19],-0.477
same,glycan array binding signal (z-score),[20],-0.275
same,glycan array binding signal (z-score),[21],-0.528
same,glycan array binding signal (z-score),[22],0.065
same,glycan array binding signal (z-score),[23],-0.397
same,glycan array binding signal (z-score),[24],-0.489
same,glycan array binding signal (z-score),[25],0.264
same,glycan array binding signal (z-score),[26],-0.455
same,glycan array binding signal (z-score),[27],-0.346
same,glycan array binding signal (z-score),[28],0.167
same,glycan array binding signal (z-score),[29],-0.582
same,glycan array binding signal (z-score),[30],-0.548
